Data reported in publication PMC8913300, “Two distinct classes of cochaperones compete for the EEVD motif in heat shock protein 70 to tune its chaperone activities” (The Journal of Biological Chemistry, 2022).
No constants are given. Whether binding was seen depends on the method and setting. Some results given as binding are weak or reduced against the parent protein; the word gives no strength.

Chains of the proteins cited; added tags and fusions are not shown.
UniProt Q9UDY4: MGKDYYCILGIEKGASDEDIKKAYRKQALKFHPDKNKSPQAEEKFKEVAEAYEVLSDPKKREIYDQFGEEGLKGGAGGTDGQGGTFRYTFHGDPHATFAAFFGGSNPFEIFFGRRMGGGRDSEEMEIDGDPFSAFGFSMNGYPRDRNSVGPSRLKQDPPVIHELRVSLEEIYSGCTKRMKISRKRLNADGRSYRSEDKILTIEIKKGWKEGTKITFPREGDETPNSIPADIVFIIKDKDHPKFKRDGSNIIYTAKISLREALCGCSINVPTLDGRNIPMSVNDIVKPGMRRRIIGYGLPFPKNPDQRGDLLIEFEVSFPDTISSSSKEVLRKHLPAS

Assays:
DnaJB4 (human) [1] = target: DnaJB4 (human) (UniProt Q9UDY4); assay: fluorescence polarisation; competition; 100 μM unlabeled peptide, 5 μM DnaJB4, 20 nM Hsp72 tracer in JDP binding buffer; 30 min at room temperature; tracer displacement relative to DMSO control; both purified
DnaJB4 (human) [2] = target: DnaJB4 (human) (UniProt Q9UDY4); assay: differential scanning fluorimetry; 5 μM DnaJB4, 100 μM peptide, 5x Sypro Orange in JDP binding buffer; apparent melting temperature of DnaJB4; both purified

In the case of “Hsp72 peptide with valine at P5 (from UniProt P0DMV8 632-641)”, the binding (DnaJB4 (human) [1]) is reported as “binds”.
With “Hsp90α C-terminal 10-mer peptide, unlabeled, N-acetylated (from UniProt P07900 723-732)” the binding (DnaJB4 (human) [1]) was “no binding (tested: 100 μM peptide)” and the binding (DnaJB4 (human) [2]) was “no binding (tested: 100 μM peptide)”.
For “Hsp72 peptide with tyrosine at P5 (from UniProt P0DMV8 632-641)”, the binding (DnaJB4 (human) [1]) was “binds”.
With “Hsp72 peptide with phenylalanine at P5 (from UniProt P0DMV8 632-641)” the binding (DnaJB4 (human) [1]) was “binds”.
With “Hsp90β C-terminal 10-mer peptide, unlabeled, N-acetylated (from UniProt P08238 715-724)” the binding (DnaJB4 (human) [1]) was “no binding (tested: 100 μM peptide)” and the binding (DnaJB4 (human) [2]) was “no binding (tested: 100 μM peptide)”.
For “Hsp72 peptide with leucine at P5 (from UniProt P0DMV8 632-641)”, the binding (DnaJB4 (human) [1]) was “binds”.
